# Measured values: the supplement of paper PMC10115384
# B1: ADI-67665 (protein)
# chain 1: QVQLQESGPRLVKPSETLSLICTVSGGSVSGYYWSWFRQPPGKGLEWIGYIYGTGPTKFNPSLKSRFSMSVDTSKNQFSLKLISVSAADTAVYYCARGFETWGQGTTVTVSS
# chain 2: EIVLTQSPGTLSLSPGDRATLSCRASQSFSSNYLAWFQQKPGQAPRLLIYAASSRAIGIPDRFSGSGSGTDFTLTISRLEPEDFAIYYCLQSGGSWTFGQGTKVEIK
# B2: ADI-67664 (protein)
# chain 1: QVQLVESGGGVVQPGRSLRLSCAASGFTFNRYGIHWVRQAPGKGLEWVAFISHDGSKNWYADSVKGRFTISRDNSKNTQYLQMNSLRGEDTAVYYCAKSLLGGYYARLYDYYGMDVWGQGTTVTVSS
# chain 2: QSALTQPPSASGSPGQSVTISCTGTSSDVGGYNYVSWFQQHPGRAPKLLIYEVNKRPSGVPDRFSGSKSGNTASLTVSGLQAEDEADYYCSSYAGSNLWVFGGGTKLTVL
# B3: ADI-67638 (protein)
# chain 1: EVQLVQSGAEVKKPGESLKISCKGSGYRFSSYWIAWVRQTPGKGLEWMGSIYPGDSDTKFSPSFQGQVTISVDKSISTAYVQWNSLKASDTAMYYCARHFADCNQGICHSDYYSYMDVWGKGTTVTVSS
# chain 2: DIVMTQSPDSLAVSLGERATINCKSSRTVLHISNNKNYLAWYQQKPGQPPKLLIYWASTRESGVPDRFSGSGSGTDFTLTISSLQAEDVAVYYCQQYYSTVTFGQGTKLEIK
# B4: ADI-67630 (protein)
# chain 1: QVQLVQSGAEVRKPGASVKVSCKVSEYTLIELSVHWVRQAPGKGLEWMGGFDPEDGKTIYAQKFQGRVTMTEDTSTDTAYMELSSLRSEDTAVYYCATVPPPIVEIPVPQRNWFAPWGQGTLVTVSS
# chain 2: DIQMTQSPSSLPASVGDRVTITCRASQSISSYLNWYQQKSGKAPKLLIYSASTLQSSVPSRFSGSGSGTDFSLTISSLHPEDFATYYCQQSYTTPYTFGQGTKVEIK
# B5: ADI-67671 (protein)
# chain 1: QVQLQESGPGLVKSSQTLSLTCSVSGGSLNSGGYYWTWIRQHPGKGLEWIGYISYTGSINYNPSLRSRVSISVDTSKNQFSLRLSSVTVADTAVYYCARDRIADFQYYGMDVWGQGTTVTVSS
# chain 2: DIQMTQSPSTLSASVGDRVTITCRASQSISNLLTWYQQKPGKAPKLLIYKASTLESGVPSRFSGSASGTEFTLTISSLQPDDFATYYCQHQRTYGQGTKLEIK
# Target: SARS-CoV-2 index (Wuhan-Hu-1) spike pseudovirus
# Assay: pseudovirus neutralization IC50; higher = weaker neutralization
# Conditions: system: VSV particle, 293T-ACE2 cells
# Experimental: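 Single-round reporter pseudovirus mixed with dilutions of yeast-made human IgG and put on ACE2-bearing cells; IC50 from the dose curve.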
row,Binder,pseudovirus neutralization IC50 [µg/mL]
1,B1,> 1
2,B2,> 1
3,B3,> 1
4,B4,> 1
5,B5,> 1

# Human monoclonal antibodies (heavy:light variable regions, translated from the printed DNA). IC50 against SARS-CoV-2 spike pseudoviruses, on VSV particles in 293T-ACE2 cells (24 h) or MLV particles in HeLa-ACE2 cells (72 h); lower = stronger; >1.0 µg/ml as printed. No active / inactive call per row; the paper counts an IC50 of 0.4 µg/ml or less on any variant as neutralizing. Only 98 of the paper's 459 antibodies have neutralization values; the two systems are not on one scale.
